Whole data set: some 110,000 compounds, median “z-score” near -0.1, cut for the highest 2% near 2. The list shows a part of the results. Active and inactive are the calls of the source.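 The calls were made as follows: active = z-score in the third read window above 3 or below -3; inactive = the rest.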

The target in the assay is Metabotropic glutamate receptor 8 (Rattus norvegicus) (UniProt P70579). The experiment in a line: rat mGluR8 modulators via GIRK flux, primary screen, cell-based, thallium flux, HTS (AID 488969). As to conditions: HEK293 rat mGluR8, GIRK (G protein-gated inwardly rectifying potassium channel) thallium flux, FluoZin2; at 10 µM; stronger effect = higher value; submaximal glutamate (EC20) added with thallium.
Sequence of UniProt P70579 (P70579 whole entry, looked up): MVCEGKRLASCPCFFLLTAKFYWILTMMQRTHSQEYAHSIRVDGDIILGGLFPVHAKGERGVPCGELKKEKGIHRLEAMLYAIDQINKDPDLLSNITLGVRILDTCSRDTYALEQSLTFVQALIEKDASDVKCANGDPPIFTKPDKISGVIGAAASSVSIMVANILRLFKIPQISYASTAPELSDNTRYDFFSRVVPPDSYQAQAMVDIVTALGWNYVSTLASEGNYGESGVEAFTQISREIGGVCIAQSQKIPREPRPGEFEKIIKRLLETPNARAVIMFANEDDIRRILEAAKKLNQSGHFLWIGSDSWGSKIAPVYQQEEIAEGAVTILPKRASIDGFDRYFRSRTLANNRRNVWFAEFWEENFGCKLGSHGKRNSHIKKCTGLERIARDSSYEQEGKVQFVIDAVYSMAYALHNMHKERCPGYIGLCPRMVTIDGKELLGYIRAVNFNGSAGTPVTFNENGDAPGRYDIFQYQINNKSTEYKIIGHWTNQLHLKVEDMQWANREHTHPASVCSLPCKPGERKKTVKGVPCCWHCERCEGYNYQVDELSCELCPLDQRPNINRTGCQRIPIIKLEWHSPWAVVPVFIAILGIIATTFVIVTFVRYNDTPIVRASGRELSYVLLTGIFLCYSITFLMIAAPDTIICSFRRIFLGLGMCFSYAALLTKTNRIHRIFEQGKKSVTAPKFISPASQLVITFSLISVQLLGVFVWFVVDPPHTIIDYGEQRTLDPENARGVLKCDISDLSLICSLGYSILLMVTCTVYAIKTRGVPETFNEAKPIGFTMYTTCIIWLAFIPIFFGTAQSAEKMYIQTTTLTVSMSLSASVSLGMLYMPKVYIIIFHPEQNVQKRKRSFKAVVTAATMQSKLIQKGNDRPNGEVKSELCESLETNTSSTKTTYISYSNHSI
`O=C(NCCC1=CCCCC1)C(=O)NCC1OCCCN1S(=O)(=O)c1ccccc1` (centres undefined) had a z-score of 0.0354. Molecule `COc1ccccc1OCCNc1nc2c(c(=O)n(C)c(=O)n2C)n1C` came in with a z-score of 1.41. With `CCCc1c(C)nc2ccccc2c1SCCC#N` the figure was -0.202; with `O=S(=O)(Nc1nc2ccccc2nc1Nc1ccc(N2CCOCC2)cc1)c1cc(Cl)ccc1Cl`, -2.42. With `CCN1CNC(=S)N(c2cc(C)ccc2C)C1` the figure was -0.26. For `COc1ccc(N(CC(=O)N2c3ccccc3CC2C)S(=O)(=O)c2c(C)nn(C)c2C)cc1` (centres undefined), the z-score was -0.0129. Molecule `COCCNC(=O)C(c1ccncc1)N(C(=O)Cn1nnc2ccccc21)c1ccc(OC)cc1` (centres undefined) displayed a z-score of 1.09. As for `CCOC(=O)Nc1nc(-c2ccccc2)c(C(=O)c2ccc(Cl)cc2)s1`, the z-score is -0.238. For `COCCN(CCOC)c1nc(N)c2c(N)nc3c(c2c1C#N)CC(=O)N3Cc1ccc(Cl)cc1`, the z-score was -0.21. The molecule `Cn1c(=O)oc2cc(S(=O)(=O)Nc3ccc4c(c3)OCO4)ccc21` gave a z-score of -0.594.

In the case of `CC(C)Cn1c(N)c(C(=O)CSc2ccc3c(c2)OCCO3)c(=O)n(C)c1=O`, the z-score was -0.027. `Cc1cc(C)c(S(=O)(=O)c2ccccc2C)c(OCC(C)(C)C)n1` yielded a z-score of -0.185. As for `COc1nn(C(C)C(=O)N2N=C(C(F)F)CC2(O)C(F)F)cc1[N+](=O)[O-]` (centres undefined), the figure is -0.154; as for `COc1ccccc1C1CC(c2ccc(Cl)cc2)Nc2nc(N)nn21` (centres undefined), 0.0485. In turn, `CCNc1nnc(CSc2nc3ccccc3s2)s1` came in with a z-score of 0.134. Consider `O=C(/C=C/c1ccccc1)NC1CCSC1=O` (centres undefined), for which the z-score amounted to 0.793. As to `COc1cccc(NS(=O)(=O)c2cn(C)c(=O)n(C)c2=O)c1`, the z-score is -0.0462. On to `CC(=O)Nc1cccc(NC(C)=O)n1`, for which the z-score amounted to 0.588. The molecule `Cc1ccc(NS(=O)(=O)c2c(C)[nH]c(=O)[nH]c2=O)cc1C` yielded a z-score of -0.25. As for `CCN(CC)c1ccc(-n2c(C)c(C(C)=O)c(C(C)=O)c2C)cc1`, the figure is -0.203; as for `COc1ccc(NCCC#N)cc1`, 0.269.

With `Cc1cc(C(=O)N(C)CC(=O)Nc2ccccc2C(F)(F)F)c(C)o1`, the z-score was 0.23. The molecule `CC(=O)NCCn1c(SCc2ccc(C)cc2C)nc2ccccc2c1=O` registered a z-score of 0.0774. `CN(CC1CCCO1)S(=O)(=O)c1ccc(C(=O)Nc2nc(-c3ccccn3)cs2)cc1` (centres undefined) gave a z-score of -0.115. As to `CCCCNC(=O)CCn1c(=O)c2ccccc2n(CC(=O)Nc2ccccc2OCC)c1=O`, the z-score came to 1.06. The molecule `NC(=O)c1cn(-c2ccccc2)nc1-c1cccnc1` came in with a z-score of 0.17.

In turn, `Cc1sc(NC(=O)/C=C/c2ccc3c(c2)OCO3)nc1-c1ccccc1` yielded a z-score of -0.36.

`COc1ccc(C=O)cc1OS(=O)(=O)c1ccc(NC(C)=O)cc1` had a z-score of -0.159. Regarding `O=C(Nc1cccc(-c2nc3ncccc3o2)c1)c1sc2cc(Cl)ccc2c1Cl`, the z-score was -0.448. As for `CC[C@H](C)NC(=O)c1ccc(Cn2c(=S)[nH]c3c([nH]c4ccc(OC)cc43)c2=O)cc1`, the figure is -0.188; as for `C=CCn1c(C)cc(C(=O)COC(=O)c2ccc3c(c2)NC(=O)CS3)c1C`, -0.148; as for `CC(Sc1ccc(Cl)cc1)C(=O)Nc1ccc2c(c1)OCO2` (centres undefined), -0.274. For `COc1ccc(S(=O)(=O)Nc2nc3ccccc3s2)cc1`, the z-score stood at 0.179. With `COC(=O)c1ccc(N2CCN(C)CC2)c(NC(=O)COc2ccc(OC)cc2)c1` the figure was -0.956; with `Cc1ccc(S(=O)(=O)N(CC(=O)N/N=C/c2ccco2)c2cc(Cl)cc(Cl)c2)cc1`, 0.0879; with `CCN(CC)c1ccc(N2C(=O)/C(=C/c3cccnc3)SC2=S)cc1`, -0.107.

`N#C/C(=C\c1ccc(-c2cccc(C(F)(F)F)c2)o1)C(=O)Nn1cnnc1` yielded a z-score of -0.113. `O=C(CCN1C(=O)C2CC=C(Cl)CC2C1=O)NCc1ccco1` (centres undefined) gave a z-score of -0.187. Regarding `OCCNc1nc(-c2ccccc2)c2ccccc2n1`, the z-score was -0.0741. Molecule `CC(C)c1nc(Cl)c(C#N)c2c1CSC(C)(C)C2` yielded a z-score of -0.331. Take `COc1cccc(NC(=O)CN2CCC(C)CC2)c1`: the z-score worked out at 0.0168. Molecule `O=S(Cc1ccc(Br)cc1)Cc1nnc(SCc2c(Cl)cccc2Cl)n1-c1ccccc1` (centres undefined) returned a z-score of 0.0461. As for `O=C(c1ccc(CS(=O)(=O)c2ccc(Br)cc2)o1)N1CCCC1`, the z-score was -0.0644. In turn, `COc1cccc(NS(=O)(=O)c2ccc3[nH]cc(C(=O)NCCN4CCOCC4)c(=O)c3c2)c1` yielded a z-score of -0.117. `CC(=O)CCS(=O)(=O)c1ccc(NC(C)=O)cc1` registered a z-score of -0.167.

Consider `COCCCNC(=S)N1CCN(C(=O)C(=O)Nc2ccc(C(=O)OC)cc2)CC1`, for which the z-score was -0.209. With `COc1ccccc1C(=O)N1CCCN(C(=O)c2ccccc2OC)CC1` the figure was 0.134; with `CCCNC(=O)c1ccc(C2SCC(=O)N2Cc2ccccc2)cc1` (centres undefined), -0.173. In the case of `C=CCSc1nc(C)cc(/C=C\c2ccccc2)c1C#N`, the z-score worked out at 0.00317. `CCC1(C)Cc2c(sc3c2c(=O)n(-c2ccccc2)c(=O)n3C)CO1` (centres undefined): the z-score is -0.673. Take `C/C(O)=C/c1nc2ccccc2[nH]c1=O`: the z-score was -0.0224. In turn, `COc1ccccc1C(=O)N/C(=C\c1ccc2c(c1)OCO2)C(=O)NCCc1nc2ccccc2[nH]1` had a z-score of -1.09. Turning to `Cc1ccc(-c2nc3ccc(C(=O)O)cc3nc2-c2ccc(C)cc2)cc1`, the z-score is -0.396. In turn, `CSc1ccc(Cl)c(C(=O)OCC(=O)N2CCOCC2)c1` gave a z-score of -0.0774. As for `CCSc1nc2ccccc2n1CCOc1ccccc1`, the figure is -0.603. `Cc1ccc(-c2nnc(SCC(=O)Nc3cccc(C(=O)N4CCOCC4)c3)n2C)cc1` returned a z-score of 1.94. Molecule `CC1(C)Cc2c(sc3c2c2ncnn2c2nnc(SCC(=O)NCc4ccco4)n32)CO1` displayed a z-score of -0.227. Regarding `C/C(N)=C(/C#N)C(=O)CSc1nc2ccccc2c(=O)n1-c1ccc(C)c(Cl)c1`, the z-score was -0.275. As for `O=[N+]([O-])c1ccccc1S(=O)(=O)Oc1ccc(C(=S)N2CCOCC2)cc1`, the z-score was -0.236.

Molecule `CCOC(=O)c1csc(NC(=O)C2CCCCC2)n1` registered a z-score of -0.156. Molecule `CC(C)(C)SCCNS(=O)(=O)c1ccc2ccccc2c1` had a z-score of -1.1. `CC(=O)c1cc(-c2ccccc2)n(CC(=O)Nc2cccc(C)c2)c1C`: the z-score is -0.0856. The molecule `CCOC(=O)N1CCN(C(=O)CCN2C(=O)COc3ccc(C)cc32)CC1` displayed a z-score of 1.43. As for `COc1ccc(-c2nc3cnccn3c2Nc2ccc(C)cc2)cc1`, the figure is -0.524. `COc1cc(CNC(C)(C)CO)ccc1OCC(=O)Nc1ccc(Br)cc1` displayed a z-score of -0.16. Take `COc1cc(/C=N/n2c(C)nnc2C)cc(OC)c1OC`: the z-score was found to be 0.377. For `CCC(SC1=N/C(=C/c2ccccc2OC)C(=O)N1c1ccccc1)C(=O)Nc1cc(C)on1` (centres undefined), the z-score turned out to be 0.258. Take `Cc1cccc(N2CCN(CC(=O)Nc3ccccc3[N+](=O)[O-])CC2)c1C`: the z-score was -0.117. On to `CC(C)OC(=O)C1C2C=CC3(CN(CC4CCCO4)C(=O)C13)O2` (centres undefined), for which the z-score was -0.25.

With `O=C(NCCN1C(=O)S/C(=C\c2ccccc2F)C1=O)C1CCCN1C(=O)c1cccs1` (centres undefined), the z-score was -0.396. `CCc1ccc(-n2c(O)cnc2Nc2nc(C)cc(C)n2)cc1` yielded a z-score of -0.174. For `CCc1nc2ccccc2c(C(=O)OCCN2C(=O)c3ccccc3C2=O)c1C`, the z-score is -0.709.

In turn, `CC(C)COP(=O)(c1ccc(N(C)C)cc1)C(Nc1ccccc1)c1cccnc1` (centres undefined) showed a z-score of 1.07. `O=C(OCc1c(Cl)cccc1Cl)c1cccnc1Cl` had a z-score of -0.167. For `Cc1ccc(-c2nnc(NCc3nc4ccccc4[nH]3)c3ccccc23)cc1S(=O)(=O)N(C)C`, the z-score is -0.904. Molecule `Cc1ccccc1NC(=O)c1sc2nc[nH]c(=O)c2c1C` displayed a z-score of -0.123. With `COc1ccc(-c2nc(C)c(C(C)=O)n2O)cc1`, the z-score came out at 0.00611. `CC(C)C(C)(C#N)NC(=O)CSc1nnc(C(F)(F)F)n1C` (centres undefined): the z-score was 0.164. In turn, `FC(F)(F)COc1nc(N2CCOCC2)nc(N(c2ccccc2)c2ccccc2)n1` displayed a z-score of -0.75. As for `O=C(NCCC1=CCCCC1)c1ccc(Cl)c(S(=O)(=O)N2CCOCC2)c1`, the z-score stood at 0.645.

For the molecule `CCNC(=O)OCCC12CC3CC(CC(C3)C1)C2`, the z-score was -0.876.

Consider `CC(NC(=O)c1ccccc1)C(c1cccs1)N1CCOCC1` (centres undefined), for which the z-score was determined as 1.04. In turn, `O=C(O)C1CCCCC1C(=O)Nc1ccccc1Cl` (centres undefined) had a z-score of -0.189.

In turn, `CCOC(=O)c1nc(C)n(-c2cc(Cl)cc(Cl)c2)n1` returned a z-score of -0.0205. `Cc1ccc(-n2ncc3c(NCCCN4CCOCC4)ncnc32)c(C)c1` yielded a z-score of 0.473. Consider `COc1ccc([N+](=O)[O-])cc1NC(=O)C(C)N(C)Cc1ccc(Br)cc1` (centres undefined), for which the z-score was -0.255.

For `COC(=O)C(NC(=O)c1ccc(F)cc1)(Nc1nc(C)cs1)C(F)(F)F` (centres undefined), the z-score was -0.229. With `O=C(NCCCN1CCc2ccccc2C1)Nc1ccc(Br)cc1` the figure was 0.628; with `Cc1onc(-c2ccccc2)c1C(=O)NC(=S)Nc1sc2c(c1C#N)CCCC2`, active: 4.1; with `CCOC(=O)C1CCN(C(=O)Cn2cc(C(=O)c3ccco3)c3ccccc32)CC1`, -0.153. In turn, `CC(=O)Nc1sc2c(c1C(c1cccs1)N1CCOCC1)CCCC2` (centres undefined) gave a z-score of -0.586. In turn, `COc1ccc(-c2nc(N)n[nH]2)cc1` came in with a z-score of -0.101. Molecule `CCn1c2ccccc2c2cc(NC(=O)COC(=O)c3ccccc3Br)ccc21` showed a z-score of 1.07. As to `Cc1ccnc(NC(c2ccncc2)c2c(C)[nH]c3ccccc23)c1` (centres undefined), the z-score was -0.317.

In turn, `CS(=O)(=O)c1ccc(Sc2nc3ccccc3s2)c([N+](=O)[O-])c1` had a z-score of -0.034. `CCCc1ccc(OCCNC(=O)CC)cc1` came in with a z-score of -0.143. As for `O=C(O)C1CCN(S(=O)(=O)/C=C/c2ccccc2)CC1`, the figure is -0.424. On to `CCOC(=O)c1sc(NC(C)=O)nc1C`, for which the z-score was 0.467. In the case of `O=C(CN1C(=O)c2ccccc2C1=O)NCCc1c[nH]c2ccccc12`, the z-score is -0.164. With `Cc1ccc(NC(=O)c2oc3ccc(S(=O)(=O)N4CCOCC4)cc3c2C)cc1C` the figure was 0.23; with `Cc1csc(SCCn2c(N3CCCC3)nc3c2c(=O)[nH]c(=O)n3C)n1`, 0.396; with `CCC(=O)N1CCc2cc(S(=O)(=O)NCCC(=O)Nc3cc(C)cc(C)c3)ccc21`, 0.573.

In turn, `Cc1cc(=O)[nH]c2ccccc12` came in with a z-score of 0.0895. `COc1cc2c(cc1OC)C(C(=O)NC1CC1)C1c3ccccc3CCN1C2=O` (centres undefined) registered a z-score of 0.0421. The molecule `COC(=O)/C=C\C(=O)Nc1cccc([N+](=O)[O-])c1` displayed a z-score of -0.0799.

`O=C(CCCN1C(=O)CCC1=O)Nc1cccc(C(F)(F)F)c1`: the z-score is -0.24.

`Cc1cc(C)cc(NC(=O)CSc2ccc(-c3ccco3)nn2)c1` showed a z-score of -0.426. `CCC(C)(C(=O)NC1CCCC1)N(C(=O)c1cnccn1)c1ccccc1` (centres undefined): the z-score was -0.132.

Molecule `COc1ccc(OCCCC(=O)Nc2cccc(SC)c2)cc1` yielded a z-score of 0.21.
